# Results taken from PubChem BioAssay AID1460 (National Center for Advancing Translational Sciences (NCATS), 2008).
# Where “and” joins values, the source holds several entries; their conditions need not be identical. Identical values can stand only once. Screen size: about 270,000 compounds; about 5,800 (2.1%) were called active. The shares of active, inactive and inconclusive entries below differ from those in the screen. The call rests on the fitted dose curve; in most records, active means well fitted inhibition curve with a large enough effect; inconclusive means small, poorly fitted or top-dose-only effect; inactive means flat fitted curve, though single readings scatter. Potencies beside an inconclusive call are fits to weak or partial responses and may not hold up.
# Target: Microtubule-associated protein tau (Homo sapiens) (UniProt P10636)
# Chain of UniProt P10636 (P10636 whole entry, looked up): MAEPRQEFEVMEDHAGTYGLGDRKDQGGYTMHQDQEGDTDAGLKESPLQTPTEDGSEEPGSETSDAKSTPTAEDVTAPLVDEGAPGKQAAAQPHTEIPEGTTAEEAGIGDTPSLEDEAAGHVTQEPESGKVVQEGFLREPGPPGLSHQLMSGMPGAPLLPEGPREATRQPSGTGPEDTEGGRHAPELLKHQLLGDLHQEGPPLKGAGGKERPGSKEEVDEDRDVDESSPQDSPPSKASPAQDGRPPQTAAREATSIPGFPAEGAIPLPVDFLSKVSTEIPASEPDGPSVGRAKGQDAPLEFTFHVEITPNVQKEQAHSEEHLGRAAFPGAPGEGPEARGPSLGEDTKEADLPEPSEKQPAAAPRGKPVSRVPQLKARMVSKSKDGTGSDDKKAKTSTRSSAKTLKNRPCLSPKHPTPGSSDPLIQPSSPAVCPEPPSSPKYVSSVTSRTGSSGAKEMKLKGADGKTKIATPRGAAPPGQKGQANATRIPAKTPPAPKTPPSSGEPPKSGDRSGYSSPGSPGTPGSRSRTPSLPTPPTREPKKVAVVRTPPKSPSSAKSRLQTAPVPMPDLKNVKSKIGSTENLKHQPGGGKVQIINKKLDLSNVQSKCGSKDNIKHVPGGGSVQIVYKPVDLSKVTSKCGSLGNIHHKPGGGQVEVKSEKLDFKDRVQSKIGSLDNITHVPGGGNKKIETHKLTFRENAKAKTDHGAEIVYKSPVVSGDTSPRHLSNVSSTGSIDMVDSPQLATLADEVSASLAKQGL
# Assay: qHTS for Inhibitors of Tau Fibril Formation, Thioflavin T Binding; further: nearly all actives have a fitted effect of over 55% in size
# Conditions: recombinant tau K18 P301L (four-repeat tau fragment), heparin-induced fibrillization, ThT fluorescence; series mostly up to 57.4 µM; activity, negative = inhibition: at the top concentration
# Summary of the method: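 Aggregation was driven by heparin (20 uM final) acting on recombinant tau […] bearing P301L in 100 mM sodium acetate pH 7; fibrils were detected with Thioflavin T.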
# On the % scale 0 is the no-effect control and ±100 the full control effect; potency means the concentration at half of the fitted maximal effect; tags describe the fitted curve by direction and shape.
SMILES,Potency,"activity, negative = inhibition"
CC(C)OC(=O)COc1ccc(-c2ccccc2)cc1,"inconclusive: 12.6 µM [inhibitor, partial curve, poor fit]",–
Cc1ccc(N(CC2=NCCN2)c2cccc(O)c2)cc1,"inconclusive: 20 µM [inhibitor, single point]",–
Cn1ncc(Cl)c1C(=O)Nc1nc2ccc(Cl)cc2s1,"inconclusive: 25.1 µM [inhibitor, partial curve, poor fit]",–
O=c1c2c([N+](=O)[O-])cc([N+](=O)[O-])cc2sn1-c1ccc(Br)cc1,active: 14.1 µM,–
COc1ccc(OC)c(NC(=O)C2=C(C)C(=O)OC23CCN(C(C)C)CC3)c1,"inconclusive: 28.2 µM [inhibitor, single point]",–
Cc1[nH]c2ccccc2c1C(=O)CSc1nc2cc(S(=O)(=O)N3CCCCC3)ccc2o1,–,inactive: -8.96%
CC(C)c1ccc(NC(=O)c2ccc(=O)n(Cc3ccccc3)c2)cc1,–,inactive: -12.9%
O=Cc1ccc(OC(=O)c2cccnc2)cc1,"inconclusive: 7.08 µM [inhibitor, partial curve, poor fit]",–
CCc1ccc(-n2c(=O)c3ccccc3n(Cc3ccccc3C#N)c2=O)cc1,–,inactive: -2.26%
CCCC(=O)Nc1ccc2oc(-c3ccc(O)c(Br)c3)nc2c1,"inconclusive: 0.708 µM [inhibitor, full curve]",–
CCOC(=O)c1cnc(SCC(=O)Nc2cc(OC)cc(OC)c2)nc1N,"inconclusive: 39.8 µM [activator, single point]",–
CC(C)(C)c1ccc(/C=C/C(=O)Nc2ccc3c(c2)OCCO3)cc1,"inconclusive: 4.47 µM [inhibitor, partial curve, poor fit]",–
O=C(CCn1ccc2ccccc21)Nc1ccc(N2CCOCC2)cc1,"inconclusive: 17.8 µM [inhibitor, partial curve]",–
Cc1ccc(SCC(=O)N2CCc3ccccc32)cc1,"inconclusive: 6.31 µM [inhibitor, partial curve]",–
CC1(C)CC(=O)C2=C(C1)OC1=C(C(=O)CC(C)(C)C1)C2c1ccc(O)c([N+](=O)[O-])c1,–,inactive: -14%
COC(=O)c1ccc(CNC(=O)COC(=O)COc2ccc(OC)cc2)cc1,"inconclusive: 11.2 µM [inhibitor, partial curve]",–
O=C(Nc1ccc2oc(-c3ccccc3F)nc2c1)c1ccco1,"inconclusive: 2.51 µM [inhibitor, single point]",–
O=[N+]([O-])c1ccc(N/N=C2\CC3CC=CC23)c([N+](=O)[O-])c1 (configuration not stated),"inconclusive: 15.8 µM [inhibitor, partial curve]",–
Cc1cc(=O)oc2cc(OCC(=O)OCC(=O)Nc3ccccc3Br)ccc12,"inconclusive: 1.41 µM [inhibitor, partial curve, poor fit]",–
O=C1c2ccccc2C(=O)c2c1cccc2N1CCN(CCO)CC1,"inconclusive: 15.8 µM [inhibitor, partial curve]",–
CCO[C@@H]1OC(C(N)=O)=C[C@H](c2coc3ccccc3c2=O)[C@H]1CCCO,–,inactive: 18%

SMILES,Potency,"activity, negative = inhibition"
CCC1CN(C(=O)N2CCC(C(=O)NCc3cccc(F)c3)CC2)c2cc(C)ccc2O1 (configuration not stated),–,inactive: -11.3%
Oc1sc(C=Nc2ccccc2)c2ccccc12,"inconclusive: 3.98 µM [inhibitor, partial curve]",–
COc1ccc(Nc2ncnc3nc[nH]c23)cc1OC,"inconclusive: 22.4 µM [inhibitor, single point]",–
O=C(CN1C(=O)c2cccnc2Sc2ccccc21)Nc1cc(F)ccc1F,–,inactive: -2.61%
O=C(NC(=S)Nc1cc(C(F)(F)F)ccc1N1CCOCC1)c1sc2ccccc2c1Cl,"inconclusive: 7.94 µM [inhibitor, partial curve]",–
Oc1ccc(/C=N/N=C/c2ccc(O)cc2)cc1,"inconclusive: 22.4 µM [inhibitor, partial curve]",–
Cc1ccc(-n2nc(C)c3c(C(=O)NCCc4ccc(S(N)(=O)=O)cc4)cc(C)nc32)cc1,"inconclusive: 44.7 µM [inhibitor, single point]",–
O=C(CSc1cn(CC(=O)N2CCCCC2)c2ccccc12)NCc1ccccc1Cl,"inconclusive: 17.8 µM [inhibitor, partial curve, poor fit]",–
O=C(O)CCc1ccc(S(=O)(=O)NCCc2ccccc2)cc1,"inconclusive: 11.2 µM [inhibitor, partial curve]",–
Cc1cc(Nc2cccc(Cl)c2)nc2ccc(NC(=O)COc3ccc(Cl)cc3)cc12,"inconclusive: 15.8 µM [inhibitor, partial curve]",–
Cc1ccc(OCC(=O)NC(=S)Nc2cccc(NC(=O)c3ccccc3Cl)c2)cc1,–,inactive: 3.34%
CCOc1ccccc1-c1nnc(SCC(=O)NC2CC3CCC2C3)n1CC (configuration not stated),–,inactive: -1.25%
CCCNC(=O)c1ccc2c(=O)n(Cc3ccco3)c(=S)[nH]c2c1,"inconclusive: 15.8 µM [inhibitor, partial curve]",–
Cc1c(N2C(=O)CSC2=S)c(=O)n(-c2ccccc2)n1C,"inconclusive: 12.6 µM [inhibitor, partial curve, poor fit]",–
O=C(Nc1ccc(-c2cn3c(n2)SCC3)cc1)c1ccc2c(c1)OCO2,"inconclusive: 1.41 µM [inhibitor, full curve]",–
CCCCCCN(C(=O)CCCCCN1C(=O)NC(c2ccc(-c3ccccc3)cc2)C(C(=O)OCc2ccccc2)=C1C)C(C)C(=O)NCCCC (configuration not stated),"inconclusive: 14.1 µM [inhibitor, partial curve] and inconclusive: 14.1 µM [inhibitor, single point]",–
CCOc1ccc(NC(=O)CSc2nnc(Cc3cccn3C)n2-c2ccc(OC)cc2)cc1,"inconclusive: 20 µM [inhibitor, single point]",–
O=S(=O)(Nc1ccccc1O)c1cccc2cccnc12,–,inactive: -8.11%
CCOc1ccc(-c2cn3nc(CC(C)C)sc3n2)cc1,"inconclusive: 8.91 µM [inhibitor, partial curve]",–
Cc1ccc(-n2ncc3c(=O)[nH]c(SCC(=O)N4CCOCC4)nc32)cc1,–,inactive: -6.72%
O=C(/C=C/c1ccc(Cl)cc1)c1cccnc1,"inconclusive: 14.1 µM [inhibitor, partial curve]",–
